# Results reported in paper PMC12136788.
# The other results are listed elsewhere or left out.
# T1: UNK ZnF1-6 (called full-length) (human, UniProt Q9C0B0 30-357)
# T1 sequence: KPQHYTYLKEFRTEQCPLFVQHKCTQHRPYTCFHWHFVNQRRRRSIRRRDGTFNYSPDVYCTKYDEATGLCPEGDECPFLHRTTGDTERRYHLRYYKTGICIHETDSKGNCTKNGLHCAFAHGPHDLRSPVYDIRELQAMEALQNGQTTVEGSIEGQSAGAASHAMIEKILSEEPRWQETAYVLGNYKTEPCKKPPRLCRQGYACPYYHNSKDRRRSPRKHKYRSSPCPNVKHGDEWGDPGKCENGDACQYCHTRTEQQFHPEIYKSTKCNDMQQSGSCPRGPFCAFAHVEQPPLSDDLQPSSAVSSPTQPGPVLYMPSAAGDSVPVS
# B1: chr19:14119889:14120036:-|3pUTR|ENSG00000105011|msi1|total|mutant (ssRNA)
# RNA: GGGAGUUCUACAGUCCGACGAUCAGCAGACCCACUCCAGCUUUCUGGUGUCACAGGCGGGAAUGUCCGUCCGCCGGCCGACUCCGAUCCCAUUUCUGUCCUGCUCCCAGGAAGAUUCUCCGGUCCUCUUCAAUCCAGCAGCCCCAACAGAGGAUUGAGCAUCA
# B2: chr11:72192224:72192325:+|CDS|ENSG00000110195|unk|FALSE|unique (ssRNA)
# RNA: GGGAGUUCUACAGUCCGACGAUCAGACAUGGCUCAGCGGAUGACAACACAGCUGCUGCUCCUUCUAGUGUGGGUGGCUGUAGUAGGGGAGGCUCAGACAAGGAUUGCAUGGGCCAGGACUGAGCUUCUCAAUGUCUGCAUGAACAACAGAGGAUUGAGCAUCA
# B3: chr2:1632407:1632508:-|3pUTR|ENSG00000130508|msi1|FALSE|unique (ssRNA)
# RNA: GGGAGUUCUACAGUCCGACGAUCUUGGUAAGUGAUUGAUAAAAAUUGGUUGGUGUUUCAUGACAUGUGGACUUCUUUUGAAAUAGCAAGUCAAAUGUAGUGACCAAAUUGUGGAAGAGAUUUCUGUCAAAUAGGAAAUGUGUACAACAGAGGAUUGAGCAUCA
# B4: chr1:10469171:10469279:-|CDS|ENSG00000160049|unk|total|mutant (ssRNA)
# RNA: GGGAGUUCUACAGUCCGACGAUCGUGGAUGAUGACGAUUACUUUCUGUGUCUACCUUCCAAUACUAAGUUUGUGGCAUUGGCCCGUAAUGAGAAAUGGGCAUACAACAAUUCAGGUAAGAAACUCCCGCCAUGUAUAAAACGGCAACAGAGGAUUGAGCAUCA
# B5: chr10:103999120:103999255:+|CDS|ENSG00000065613|unk|FALSE|unique (ssRNA)
# RNA: GGGAGUUCUACAGUCCGACGAUCAUCUAAGGACAGACCCUAUGACUACAAAGCUGAUGUUUGGUCCCUGGGUAUCACUUUAAUAGAAAUGGCUGAGAUAGAACCACCUCAUCAUGAAUUAAAUCCAAUGCGAGUGCUGCUAAACAACAGAGGAUUGAGCAUCA
# B6: chr7:128862928:128863052:+|CDS|ENSG00000128524|unk|total|mutant (ssRNA)
# RNA: GGGAGUUCUACAGUCCGACGAUCUAAGCUCAUCGCAGUGAUCGGAGACGAGGACACGGUGACUGGUUUCCUGCUGGGCGGCACCGGGGAGCUUAACAAGAACCGCCAUCCCAAUUUCCUGGUGGUGGAGAAGGAUACAACCAUCAACAGAGGAUUGAGCAUCA
# B7: chr17:18931026:18931127:+|3pUTR|ENSG00000141127|msi1|total|mutant (ssRNA)
# RNA: GGGAGUUCUACAGUCCGACGAUCGAUACCUGCAAUUGAAAAGCCGAAAAGAUUAUACUGUCAAGUCCAGUAAAUGACAUUUUCCGAGAUGCUUUUGCCGACAAGCAUAUGGAAUAUGUGAUUGUAUUUAUUUUCUGCAACUAACAACAGAGGAUUGAGCAUCA
# B8: chr16:31060842:31061067:-|three_prime_utr|ENSG00000167394|control|control|control (ssRNA)
# RNA: GGGAGUUCUACAGUCCGACGAUCCCGGGAGCCCAGCCCCCAUCGGGGGCUUCCUGUACCUCCUUUUGCCUGGCUCUGCUCUUUAGACUCCAGAUCCCUACCCCUCAGCAACUAGCUCCCCUGUCGGCCAGCUAAGAGAGCUGGCAACAGAGGAUUGAGCAUCA
# B9: chr5:93620789:93620892:-|3pUTR|ENSG00000113391|unk|FALSE|unique (ssRNA)
# RNA: GGGAGUUCUACAGUCCGACGAUCCAGCCCCUCAUUAGAUUGUUUUCUUCCCAGAGCCCAGGGUCGUGAUAUAUACAUCUAAAUAGCGUUUUGCAUUAUUUCUAGAUGAGUGCAACUGUCAAAGCAAUAUGGGUUCACUGGUCGCAACAGAGGAUUGAGCAUCA
# B10: chr10:15076158:15076259:-|3pUTR|ENSG00000176244|unk|FALSE|unique (ssRNA)
# RNA: GGGAGUUCUACAGUCCGACGAUCAGAUCCCUUAAGAUAAAUAUCCCCCAAAACAGUGUACCUCUAUUCCCUGCAUAAAAAUUUAGAUUUGGAAUGGUAUGACCAGAGGAAUAGAUCCACUUCAUGUUACUACAACAACAAAACCAACAGAGGAUUGAGCAUCA
# B11: chr18:9859767:9859850:+|3pUTR|ENSG00000168461|msi1_unk|FALSE|overlapping (ssRNA)
# RNA: GGGAGUUCUACAGUCCGACGAUCUUGUUACCUAACCAACCUUCACUGAAAGGCAAAUUUAGUUCAGGAGGUUAGUUUUUAGCUAGCUUUGGAAGUAAGCCUUUAUUUAUUACUUUUUGGAGGAAAUCAGAGAAGUGUCAAUGGCAACAGAGGAUUGAGCAUCA
# B12: chr8:93922960:93923061:+|CDS|ENSG00000164951|msi1|FALSE|unique (ssRNA)
# RNA: GGGAGUUCUACAGUCCGACGAUCCGGCUCAUGGUCAGCAGUCACGCUGUCUAAUGACCACAAUGCUCAAAAUGAAAGAGAACUAGAACGGCUGAAAUUGGAACAUCCAAAGAGUGAGGCCAAGAGUGUCGUGAAACAGGAUCGCAACAGAGGAUUGAGCAUCA
# B13: chr9:16436428:16436529:-|CDS|ENSG00000173068|msi1|total|mutant (ssRNA)
# RNA: GGGAGUUCUACAGUCCGACGAUCCUCCCCCGCCAGCCCGUAUUUUCUGGGCUAAAGACUGUACAACCAGUUCCUCCAUUUUACCGAAGUUUACUCACUCCAGGGGAAAUGGUGAGUCCUCCAACCUCCCUCCCAACCAGUCCCCAACAGAGGAUUGAGCAUCA
# B14: chr1:52238154:52238269:+|CDS|ENSG00000157077|unk|FALSE|unique (ssRNA)
# RNA: GGGAGUUCUACAGUCCGACGAUCUCUGAUAGUCUAGCCAGUGUCUGUUCCCCUUCACAAUUAAAGGAUGACGGAAGUAUAGGUAGAGACCCCUCCAUGUCUGCGAUUACAAGUUUAACGGUUGAUUCAGUAAUCUCAUCCCAGCAACAGAGGAUUGAGCAUCA
# B15: chr10:78035461:78035635:+|CDS|ENSG00000138326|unk|FALSE|unique (ssRNA)
# RNA: GGGAGUUCUACAGUCCGACGAUCCAUUGAUGUCCUUCACCCCGGGAAGGCGACAGUGCCUAAGACAGAAAUUCGGGAAAAACUAGCCAAAAUGUACAAGACCACACCGGAUGUCAUCUUUGUAUUUGGAUUCAGAACUCAUUUCAACAGAGGAUUGAGCAUCA
# B16: chr1:205810550:205810651:-|5pUTR|ENSG00000133065|unk|FALSE|bound_elsewhere (ssRNA)
# RNA: GGGAGUUCUACAGUCCGACGAUCUUGCGGCUUCAGUGCUUGAUGGGGCUGCCUGUUGGUGGAUCAGUUUUUGCAGUGCCUGGUAGGAGUGGAGAGCCGUGGGAAGAGGUCCUGCGGCGCCCAAGCCUGGGUUCACCCCAAGACCAACAGAGGAUUGAGCAUCA
# B17: chr7:95294748:95294849:+|3pUTR|ENSG00000158528|msi1|FALSE|bound_elsewhere (ssRNA)
# RNA: GGGAGUUCUACAGUCCGACGAUCGAGAAAGCCGACAGAAUCAGCUUCUCCUGGAAAGUGAAAGCAUCAAGUUCUAUUUAUGGUAGACAGAGGGUCCUUAUUUGCUUGUCCGUGGUGUCUAUGUGGGCCUAUUGAGGGAAUGGUCAACAGAGGAUUGAGCAUCA
# B18: ENSG00000070961:be:win_5601|3pUTR|ENSG00000070961|bound_else_gene|NA|bound_elsewhere_windowed (ssRNA)
# RNA: GGGAGUUCUACAGUCCGACGAUCGAGGUAGCAUGAUAUGCUGGAAAGCAUAUUAGACUAGGAGUCAAGACCUGGUUUCUAGUCUUGGUUUUGCCAUUAAUGUGCUGCAUGAUCUUGGGAAAAUCAUUUACCCUAAAUAAGGGUCAACAGAGGAUUGAGCAUCA
# B19: chr10:86890108:86890218:+|CDS|ENSG00000107779|unk|total|mutant (ssRNA)
# RNA: GGGAGUUCUACAGUCCGACGAUCUCAUGGCACUGGGAUGAAAUCAGACUCCGACCAGAAAAAGUCAGAAAAUGGAGUAACCUCCGCACCAGAGGAUACCUUGCCUUUUUUAAAGUGCUAUUGCUCAGGGCACUGUCCAGAUGACAACAGAGGAUUGAGCAUCA
# B20: chr20:63196482:63196583:-|3pUTR|ENSG00000149658|msi1|total|mutant (ssRNA)
# RNA: GGGAGUUCUACAGUCCGACGAUCUGAUUUUUGCCCAGAUGGAUCUGCAUUUAUUUGUACUUUUUCUAUGUAUUAUAAUCCUGCCGAAGUCACUAAUAAAGGAGUAUUUUUUUUGUCAGCUUAUCAAUCAGACUGAUCUAAUGUCAACAGAGGAUUGAGCAUCA
# B21: chr19:41259979:41260080:+|3pUTR|ENSG00000167601|msi1|total|mutant (ssRNA)
# RNA: GGGAGUUCUACAGUCCGACGAUCCCUGUCUUCCUACCUAUCCCACCUCCAUCCCAGACAGGUCCCUCCCCUUCUCUGUGCAGCCGCAUCACCUUGAAAGCAGCCGCAUCACCAUCUGUAAAAGGAAGGGGUUGGAUUGCAAUACAACAGAGGAUUGAGCAUCA
# B22: chr5:150649000:150649101:+|CDS|ENSG00000171992|msi1|total|mutant (ssRNA)
# RNA: GGGAGUUCUACAGUCCGACGAUCCAGGCCUUUUGGGAUCCAGGCGCCAGGGGGCACCAGCCAGAUGGAGAGGAGCCCCAUGCCCGAGAGACGACAUUUUGGGGAGAAGGCCCCGGCUCCCCAGCCCCCCAGUUUGCCAGACAGCAACAGAGGAUUGAGCAUCA
# Target: T1, UNK ZnF1-6 (called full-length)
# Assay: nsRBNS (natural sequence RNA bind-n-seq); RBNS binding buffer (assumed for nsRBNS): 25 mM Tris pH 7.5, 150 mM KCl, 3 mM MgCl2, 0.01% Triton X-100, 500 ug/ml BSA, 20 U/ml SUPERase-In, 4 C; UNK is unkempt and MSI1 is Musashi-1; names of the RNAs are library labels; protein concentration not given here; high values mean tight binding
row,Binder,binding signal [enrichment R]
1,B1,0.84
2,B2,0.965
3,B3,1.12
4,B4,0.543
5,B5,0.525
6,B6,0.803
7,B7,0.359
8,B8,0.865
9,B9,0.861
10,B10,0.582
11,B11,0.637
12,B12,0.617
13,B13,0.939
14,B14,0.624
15,B15,0.599
16,B16,0.767
17,B17,0.643
18,B18,0.286
19,B19,0.501
20,B20,0.665
21,B21,0.682
22,B22,0.743
